Laboratory results: paper PMC12040169 (PLOS Biology, 2025)
This is one part of the list.

What follows are compounds tested on T1, C. trachomatis L2/434/Bu expressing GFP (CTL2-GFP). Settings: total inclusion area; 28.5 h, 10 µM; inhibitor.
T1 construct: L2/434/Bu GFP intracellular growth in HeLa cells
Design: species or system HeLa; C. trachomatis total inclusion area by high-content imaging, normalised to DMSO
How it was run: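 Post-fluorescence-read fixation, DNA staining with Hoechst and high-content imaging; GFP inclusion area and number per well, and nuclei counts, used as proxies for bacterial growth and host viability.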
For `CN(C(=O)CN1CCN(c2cc(-c3cc4ccccc4o3)ncn2)CC1)c1ccccc1` [CBK091128], the “% of control remaining” value was 149.658.
With `O=S(=O)(c1ccc2ccccc2c1)N1CCCCC1CO` (stereo not shown) [CBK200055] the “% of control remaining” value was 85.9442.
With `CN(C)CCNC(=O)C1CCCN(c2nc3c(-c4ccccc4)csc3c(=O)[nH]2)C1` (stereo not shown) [CBK215501] the “% of control remaining” value was 102.708.
`Cn1c(=O)[nH]c2c(nc(-c3ccccc3)n2C)c1=O` [CBK287855] was tested, and the “% of control remaining” value was 104.458.
With `O=C(CC1CC1)N1CCC2(CCN(Cc3ccccc3)C2)C1` (stereo not shown) [CBK136825] the “% of control remaining” value was 105.363.
With `CC[C@H]1CN(C(=O)C2CC2)CC[C@H]1CC(=O)N(C)CC#N` [CBK289132] the “% of control remaining” value was 98.4288.
For `CC(C)C(N)c1nnc(SCc2ccccc2Cl)o1` (stereo not shown) [CBK270121C], the “% of control remaining” value was 98.6421.
`NC(=O)C1(N2CCCCC2)CCN(C(=S)NC2CCCC2)CC1` [CBK091884] was tested, and the “% of control remaining” value was 68.4899.
In the case of `O=C(NCCN1CCOCC1)NC(=O)c1ccc(Cl)cc1` [CBK269446], the “% of control remaining” value is reported as 66.0949.
`CC(NC(=O)CCc1nc2ccccc2n1C)c1ccccn1` (stereo not shown) [CBK281823] was tested, and the “% of control remaining” value was 94.7091.
With `CSCCN1CCC2(CC1)CN(C(=O)C(C)C)c1ccccc12` [CBK131473] the “% of control remaining” value was 91.1509.
With `COC(=O)C1=C(C)N(c2cccc(C(F)(F)F)c2)C(=O)/C1=C\c1ccc(C(=O)O)cc1` [CBK265129] the “% of control remaining” value was 102.509.
With `CN1C2CCC1CC(OC(=O)CNC1CCCCC1)C2` (stereo not shown) [CBK278161C] the “% of control remaining” value was 86.2734.
With `CCc1nc(CN(C(C)=O)C2CCN(CCc3ccccn3)C2)no1` (stereo not shown) [CBK305372] the “% of control remaining” value was 34.2517.
For `Cn1nc(-c2ccc(S(=O)(=O)Nc3nc(=O)[nH]cc3F)s2)cc1C(F)(F)F` [CBK067574], the “% of control remaining” value was 95.1909.
`Cc1sc2nc(SCCCN3C(=O)c4cccc5cccc(c45)C3=O)nc(N)c2c1C` [CBK264424] was tested, and the “% of control remaining” value was 117.345.
In the case of `COc1ccc(Cl)cc1NC(=S)NNC(=O)c1cc(C)nc2ccccc12` [CBK266920], the “% of control remaining” value is reported as 70.0925.
`O=C(c1ccoc1)N1CCC2(CCCN(CCCn3c(=O)[nH]c4ccccc43)C2)C1` (stereo not shown) [CBK132818] was tested, and the “% of control remaining” value was 112.004.
In the case of `c1csc(-c2cncc(NCc3ccncc3)n2)c1` [CBK065583], the “% of control remaining” value is reported as 114.888.
With `CC1CCc2c(sc3ncnc(SCC(=O)N(C)CCC#N)c23)C1` (stereo not shown) [CBK305896] the “% of control remaining” value was 96.8663.
With `CCOC(=O)c1c(-c2ccc(C)o2)csc1NC(=O)CN1CCCCC1C` (stereo not shown) [CBK265917] the “% of control remaining” value was 106.891.
With `CCOc1ccccc1NC(=O)CN(c1cc(C(F)(F)F)ccc1Cl)S(C)(=O)=O` [CBK264627] the “% of control remaining” value was 99.3931.
`O=C(Cc1cccs1)N1CCC(O)(c2ccccn2)CC1` [CBK283587] was tested, and the “% of control remaining” value was 107.726.
`COc1ccc2c(c1)c(C(=O)N1CCC3(CCNCC3)CC1)c(C)n2C` [CBK306562] was tested, and the “% of control remaining” value was 84.4777.
With `CSCCC(Nc1ncnc2c1c(C)c(C)n2Cc1ccco1)C(=O)O` (stereo not shown) [CBK307568] the “% of control remaining” value was 106.017.
In the case of `CC(C)[C@@H](CO)Nc1nccnc1-c1ccoc1` [CBK036648], the “% of control remaining” value is reported as 107.752.
With `CCOC(=O)/C(=N/O)C(=O)c1c[nH]c2ccccc12` [CBK260979] the “% of control remaining” value was 106.383.
`COc1ccc(C(=O)Nc2nnc(-c3ccc(OC)c(OC)c3)o2)cc1OC` [CBK287745] was tested, and the “% of control remaining” value was 107.098.
With `c1ccc(Nc2c(-c3ccccc3)nc3[nH]cnn23)cc1` [CBK287284] the “% of control remaining” value was 87.1948.
With `Cc1cc(C(F)(F)F)nn1CCC(=O)Nc1cnn(C)c1C(=O)O` [CBK286817] the “% of control remaining” value was 99.4111.
In the case of `CC(C)Cc1nc(C(=O)N2CCC3(C2)NC(=O)NC3=O)cs1` (stereo not shown) [CBK305534], the “% of control remaining” value is reported as 44.2321.
In the case of `COc1ccc(CCNC(=S)n2cc(C)cn2)cc1OC` [CBK267001], the “% of control remaining” value is reported as 85.9376.
`CC1CCc2c(C(=O)Nc3ncc(Cc4ccccc4)s3)csc2C1` (stereo not shown) [CBK300531] was tested, and the “% of control remaining” value was 15.1264.
For `O=C1O[C@@H](CO)CN1c1ccc(N(Cc2ccccc2)Cc2ccccc2)c(F)c1` [CBK016873], the “% of control remaining” value was 76.3516.
With `Cc1ccc(NC(=O)c2ccccc2NS(=O)(=O)c2ccc(C(C)C)cc2)cc1` [CBK113800] the “% of control remaining” value was 103.672.
With `Cc1nnc(CN2CCOC(c3nc(C(C)(C)C)cs3)C2)n1C` (stereo not shown) [CBK305772] the “% of control remaining” value was 12.5002.
With `O=c1n(CC2CCCCC2)c2ccccc2n1S(=O)(=O)c1cccc(Cl)c1` [CBK106521] the “% of control remaining” value was 91.8931.
With `O=C(CSCc1c(Cl)cccc1Cl)Nc1ccc(S(=O)(=O)N2CCOCC2)cc1` [CBK266276] the “% of control remaining” value was 95.2312.
With `CC1CCC(C(C)C)C(OCC(O)CN2CCN(C)CC2)C1` (stereo not shown) [CBK278213C] the “% of control remaining” value was 86.472.
`Fc1ccccc1CN1CCC(Oc2cncc(OCCN3CCOCC3)n2)C1` (stereo not shown) [CBK084479] was tested, and the “% of control remaining” value was 94.258.
`O=C(Nc1ccc(OCc2ccoc2)cc1C(=O)O)c1ccc(Cl)cc1Cl` [CBK003768D] was tested, and the “% of control remaining” value was 78.1327.
`CCn1cc(-c2cncn2CCCC(C)(C)CO)cn1` [CBK281704] was tested, and the “% of control remaining” value was 88.3066.
In the case of `O=C(Cn1c2ccccc2c2ccccc21)N1CCn2cnnc2C1` [CBK283724], the “% of control remaining” value is reported as 98.4455.
In the case of `COc1ccc(CNCCN)cc1` [CBK013010], the “% of control remaining” value is reported as 49.5701.
With `CN1CCN(c2cc(N3CCN(S(=O)(=O)c4ccc5ccccc5c4)CC3)ccc2[N+](=O)[O-])CC1` [CBK264791] the “% of control remaining” value was 96.699.
For `O=S(=O)(NN1CCOCC1)c1cc(Cl)cc(Cl)c1O` [CBK269279], the “% of control remaining” value was 112.494.
`O=C(CCn1ncc2ccccc21)N1CCC(c2ccncc2)CC1` [CBK282395] was tested, and the “% of control remaining” value was 78.8.
With `O=C(NCc1ccc(OC2CCNCC2)cc1)c1coc2c1C(=O)CCC2` [CBK038944T] the “% of control remaining” value was 98.4243.
`Cc1nn(Cc2cccc(Oc3ccccc3)c2)c(C)c1NC(=O)c1nc2ncccn2n1` [CBK267632] was tested, and the “% of control remaining” value was 85.4926.
In the case of `Clc1ccc(COc2nccnc2OC2CCN(CCOc3ccccc3)CC2)cc1Cl` [CBK083121T], the “% of control remaining” value is reported as 81.9816.
For `Nc1nnc(Cn2c(-c3nonc3N)nc3ccccc32)s1` [CBK263854], the “% of control remaining” value was 48.3394.
In the case of `Cc1noc(C)c1NC(=O)c1ccc2ncccc2c1` [CBK200308], the “% of control remaining” value is reported as 104.233.
